The other results are listed elsewhere or left out. Some results are limits rather than exact numbers.

B1: PhoQ; a variant is named by its letters at X, in order, P23837 (parent)
chain: MKKLLRLFFPLSLRVRFLLATAAVVLVLSLAYGMVALIGYSVSFDKTTFRLLRGESNLFYTLAKWENNKLHVELPENIDKQSPTMTLIYDENGQLLWAQRDVPWLMKMIQPDWLKSNGFHEIEADVNDTSLLLSGDHSIQQQLQEVREDDDDAEMTHSVAVNVYPATSRMPKLTIVVVDTIPVELKSSYMVWSWFIYVLSANLLLVIPLLWVAAWWSLRPIEALAKEVRELEEHNRELLNPATTRELTSLVRNLNRLLKSERERYDKYRTTLTDLTHSLKTPLXXLQXXLRSLRSEKMSVSDAEPVMLEQISRISQQIGYYLHRASMRGGTLLSRELHPVAPLLDNLTSALNKVYQRKGVNISLDISPEISFVGEQNDFVEVMGNVLDNACKYCLEFVEISARQTDEHLYIVVEDDGPGIPLSKREVIFDRGQRVDTLRPGQGVGLAVAREITEQYEGKIVAGESMLGGARMEVIFGRQHSAPKDE

The experiment covers variants of B1. In words: enrichment ratio after two sorts for PhoP signalling (ratio (wild type AVST 3.29)); higher = more functional. The following applies: with PhoP (E. coli).
Regarding PWQI, the enrichment ratio was at most 0.25. As for NRIP, the figure is at most 0.25; as for WVIG, at most 0.25; as for SWKT, at most 0.25. In the case of EFII, the enrichment ratio is at most 0.25. Consider RFEQ, for which the enrichment ratio was at most 0.25. Regarding FAET, the enrichment ratio was at most 0.25. The result for PHPG reads at most 0.25; that for HLFM, at most 0.25; that for FKFR, at most 0.25. TGAG: the enrichment ratio was determined as 5.21.

With LFVE, the enrichment ratio is at most 0.25.

Consider ILHE, for which the enrichment ratio was at most 0.25. The result for MARP reads at most 0.25.

As for LDDL, the enrichment ratio is at most 0.25. The result for GDHS reads at most 0.25; that for HMSK, at most 0.25. Take MNIE: the enrichment ratio was at most 0.25. Take DWVS: the enrichment ratio was at most 0.25. As for PYYY, the figure is at most 0.25; as for EGSI, at most 0.25. With FWLY, the enrichment ratio was at most 0.25.

Consider KTAC, for which the enrichment ratio is at most 0.25. Turning to TAYN, the enrichment ratio was determined as 10.1. The result for TSVT reads 3.11; that for MTPP, at most 0.25; that for ELFC, at most 0.25. As for LFFN, the figure is at most 0.25; as for LNSN, 0.263.

As for GADF, the enrichment ratio was at most 0.25.

For MQYV, the enrichment ratio was at most 0.25. As for TSPL, the figure is at most 0.25. For the variant FPWS, the enrichment ratio is at most 0.25.

With MICE, the enrichment ratio was at most 0.25. As for LNCN, the figure is at most 0.25; as for AIRF, at most 0.25; as for QGKP, at most 0.25. As for GAFW, the figure is at most 0.25; as for IQLT, at most 0.25. The result for RYSW reads at most 0.25; that for EIYG, at most 0.25; that for QCMY, at most 0.25. Consider GLHF, for which the enrichment ratio is at most 0.25. As for GDIF, the figure is at most 0.25; as for RTVA, at most 0.25; as for NHFT, at most 0.25.

Take HEYL: the enrichment ratio is at most 0.25.

With PMKG, the enrichment ratio is at most 0.25. As to AAWR, the enrichment ratio was at most 0.25. The result for RHNQ reads at most 0.25; that for IDHG, at most 0.25.

On to YEVR, for which the enrichment ratio was at most 0.25.

For the variant AECM, the enrichment ratio stood at 0.803. The result for CHVL reads at most 0.25; that for MKNE, at most 0.25; that for MRAS, at most 0.25. Consider MGRH, for which the enrichment ratio was at most 0.25. For KWHS, the enrichment ratio was at most 0.25. As for KCPA, the enrichment ratio was at most 0.25. The result for NDGL reads at most 0.25; that for SKIC, 30.5.

In the case of KCLR, the enrichment ratio is at most 0.25. Turning to SDGV, the enrichment ratio was at most 0.25. Turning to KVHE, the enrichment ratio was at most 0.25. As for PLFQ, the figure is at most 0.25. The result for FASQ reads at most 0.25; that for STAT, 4.76; that for ISEE, at most 0.25.

On to TPWE, for which the enrichment ratio was at most 0.25.

In the case of ILLI, the enrichment ratio is at most 0.25.

Take MADF: the enrichment ratio is at most 0.25. Consider LGDA, for which the enrichment ratio is at most 0.25. As to RQFD, the enrichment ratio is at most 0.25. The result for DTFK reads at most 0.25. The result for THYW reads at most 0.25; that for LYTH, at most 0.25; that for DMPI, at most 0.25. For KNST, the enrichment ratio is at most 0.25. As for KSGI, the figure is at most 0.25. For PMSM, the enrichment ratio is at most 0.25. The result for VQEH reads at most 0.25; that for ILLW, at most 0.25; that for QFVF, at most 0.25. The result for NAEP reads at most 0.25; that for GLIC, at most 0.25; that for QNYT, at most 0.25. The result for QLVT reads at most 0.25; that for WHRH, at most 0.25.

Take MFMD: the enrichment ratio was at most 0.25. Turning to EENT, the enrichment ratio was at most 0.25.

Take QEMD: the enrichment ratio is at most 0.25. As for ITPW, the figure is at most 0.25; as for NEYP, at most 0.25. In the case of HQYF, the enrichment ratio is at most 0.25. The result for IDSE reads at most 0.25.

Turning to RIMS, the enrichment ratio was at most 0.25. As for KLWN, the figure is at most 0.25; as for VIPT, at most 0.25. For the variant WDDR, the enrichment ratio is at most 0.25. As for YWKY, the enrichment ratio is at most 0.25. With TAAQ, the enrichment ratio was determined as 5.45. As for AISG, the enrichment ratio was determined as 19. EGVR: the enrichment ratio was at most 0.25. With LGTV, the enrichment ratio is at most 0.25.

ENRR: the enrichment ratio was at most 0.25. The result for AVWI reads at most 0.25; that for VNMK, at most 0.25; that for QCPM, at most 0.25. Regarding DDYN, the enrichment ratio is at most 0.25.

Turning to HMHQ, the enrichment ratio is at most 0.25. For the variant LSMY, the enrichment ratio was at most 0.25. For PQRQ, the enrichment ratio is at most 0.25. With GPWI, the enrichment ratio is at most 0.25. FCIA: the enrichment ratio was at most 0.25.

Consider YHHE, for which the enrichment ratio is at most 0.25. The result for LFDA reads at most 0.25.

For YTDH, the enrichment ratio is at most 0.25.

For NFSA, the enrichment ratio was at most 0.25. As for LWMI, the figure is at most 0.25; as for GDNI, at most 0.25. Turning to GNFA, the enrichment ratio was at most 0.25.

As for WKDP, the enrichment ratio was at most 0.25. Take IPKY: the enrichment ratio was at most 0.25. Turning to PMHG, the enrichment ratio was at most 0.25. For the variant DRMS, the enrichment ratio is at most 0.25. The result for KGNA reads at most 0.25. With TYMS, the enrichment ratio is at most 0.25.

Consider WMNK, for which the enrichment ratio is at most 0.25. With FPFR, the enrichment ratio was at most 0.25. Take YTEP: the enrichment ratio is at most 0.25. With HLGC, the enrichment ratio was at most 0.25. As for VQRY, the figure is at most 0.25; as for LHHN, at most 0.25. The result for HTKA reads at most 0.25. As for GWRL, the figure is at most 0.25; as for RFQF, 0.945; as for PDES, at most 0.25. With RQRY, the enrichment ratio was at most 0.25. As for FYQH, the figure is at most 0.25; as for DVDL, at most 0.25; as for MLET, at most 0.25. Turning to KMEG, the enrichment ratio was at most 0.25.

For the variant SALA, the enrichment ratio was 5.84. As for GRHQ, the figure is at most 0.25; as for AWVW, at most 0.25. The result for SVIR reads at most 0.25; that for AVEL, at most 0.25; that for YFSA, at most 0.25.

With HKKE, the enrichment ratio is at most 0.25. As for ARGY, the figure is at most 0.25. As for AGLD, the figure is at most 0.25. The result for VTKW reads at most 0.25; that for INWR, at most 0.25.

The values above are taken from a collection of fitness landscapes (doi:10.1126/science.1257360).
